# ± gives the standard deviation of the averaged measurements. The full ranking holds about 33,000 sequences; the median of “E-score (dimensionless, -0.5 to 0.5)” is about -0.049, and the highest 2% start at about 0.37. This is one part of the list.
# System: T1, PmTbr T-box DNA-binding domain (GST fusion)
# T1 sequence: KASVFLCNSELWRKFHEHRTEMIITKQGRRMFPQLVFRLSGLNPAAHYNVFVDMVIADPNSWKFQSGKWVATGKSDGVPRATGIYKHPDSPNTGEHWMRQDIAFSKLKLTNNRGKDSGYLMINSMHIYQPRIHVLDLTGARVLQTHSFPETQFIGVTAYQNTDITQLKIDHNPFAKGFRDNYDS
# Assay: PBM E-score of 8-mer (E-score (dimensionless, -0.5 to 0.5)); Tbr is Tbrain of the sea star Patiria miniata (Pm) or the sea urchin Strongylocentrotus purpuratus (Sp); higher = stronger binding preference; most listed sequences are background and not binding sites
# Conditions: the construct has about 5 more residues each side
# Procedure, shortened: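 Universal Agilent oligonucleotide arrays, made double-stranded by primer extension, were incubated with 200 nM GST-fused Tbr T-box DNA-binding domain in PBS (pH 7.5). The protein was expressed in BL21 E. coli at 20 °C and purified by glutathione affinity chromatography. After scanning and quantification, the Universal PBM Analysis Suite assigned an enrichment E-score to each ungapped 8-mer, averaged over duplicate arrays.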
row,Sequence,PBM E-score of 8-mer
1,CTGCAGCA,0.0651 ± 0.058
2,CGCCGCCC,-0.0469 ± 0.0038
3,AGCGAAAG,-0.0461 ± 0.031
4,ACCGCTAA,0.128 ± 0.0081
5,CATTATCA,0.14 ± 0.011
6,AGACAATA,-0.0337 ± 0.049
7,GCGAGAGC,0.21 ± 0.015
8,AATTTAAT,-0.259 ± 0.062
9,AATTTGCT,0.0793 ± 0.04
10,CAAATGCA,-0.294 ± 0.014
11,GCAAATGA,-0.0879 ± 0.066
12,CGAAAGAG,0.0571 ± 0.031
13,TAGTATGA,-0.104 ± 0.019
14,CCGAGCCA,-0.0517 ± 0.14
15,AAGTGATC,0.0541 ± 0.026
16,CTCGGTCA,-0.123 ± 0.0027
17,TCAGGAAA,0.0619 ± 0.025
18,ATATTGGA,-0.211 ± 0.031
19,GATTACGC,-0.0298 ± 0.1
20,TAGTGGGA,-0.0944 ± 0.019
21,ACCCGGGG,-0.0323 ± 0.015
22,AGAGCGAG,-0.162 ± 0.044

row,Sequence,PBM E-score of 8-mer
1,CCTACGCC,0.0658 ± 0.054
2,ACACACCA,0.285 ± 0.011
3,GTAGACGA,-0.228 ± 0.048
4,ATCACGCC,0.372 ± 0.017
5,GCATCATA,0.0365 ± 0.047
6,ACATAGGT,0.243 ± 0.027
7,GACCAACA,-0.0246 ± 0.058
8,ATAGAAGA,-0.297 ± 0.1
9,TCATAGAA,-0.31 ± 0.041
10,GACGATAC,-0.174 ± 0.059
11,AGAGCCCC,0.0265 ± 0.036
12,ACACTTGA,0.369 ± 0.029
13,CCACATAC,0.0347 ± 0.077
14,GAAAGTAC,-0.114 ± 0.11
15,GGAGCGAA,-0.015 ± 0.018
16,ATGGCATC,-0.137 ± 0.03
17,AGATTTCA,0.0541 ± 0.015
18,TATTAAGA,-0.121 ± 0.19
19,GTATTTGA,-0.153 ± 0.03
20,ATCTATTC,0.0376 ± 0.064
21,CGTCGCAC,0.332 ± 0.021
22,ACGGGATG,-0.0745 ± 0.051

row,Sequence,PBM E-score of 8-mer
1,CCTGTTCC,-0.185 ± 0.093
2,GGGCAGTA,-0.118 ± 0.073
3,GGGTCACA,0.188 ± 0.011
4,CGGTACGC,0.005 ± 0.0049
5,CGCCATAA,0.185 ± 0.073
6,GAGAACAC,0.249 ± 0.052
7,GAACCACA,-0.0723 ± 0.062
8,TCGAAGCA,-0.141 ± 0.0046
9,ACCCAGAT,-0.112 ± 0.093
10,ATAAGTCC,-0.249 ± 0.035
11,CGGACGTC,-0.149 ± 0.0048
12,GACGTGAC,0.268 ± 0.017
13,TACGGACA,-0.228 ± 0.053
14,AGAATGTC,-0.2747 ± 0.0016
15,ATCTTGTA,-0.2 ± 0.023
16,ACACAATA,0.252 ± 0.029
17,TACACGCA,0.0912 ± 0.0092
18,TAAGCCAA,-0.357 ± 0.021
19,GACAGTGA,0.207 ± 0.01
20,GAAAGCGA,0.0498 ± 0.021
21,AACTGCTA,0.172 ± 0.069
22,GATCTAGA,-0.0675 ± 0.032

row,Sequence,PBM E-score of 8-mer
1,ACATCCAT,0.0578 ± 0.00084
2,AACTAAGA,-0.0524 ± 0.013
3,AGCCTCTG,-0.136 ± 0.042
4,CCCAAAGA,-0.203 ± 0.003
5,CAGGTGTC,0.4791 ± 0.0044
6,CGCCAAAC,0.222 ± 0.027
7,GAACCTAA,-0.243 ± 0.1
8,GGAGGGAA,-0.244 ± 0.035
9,CAGACAGG,-0.114 ± 0.043
10,CCTATACC,-0.274 ± 0.026
11,AGATTGGA,-0.0814 ± 0.028
12,GGCGATCA,-0.0128 ± 0.04
13,GAAGATGC,-0.163 ± 0.0058
14,AATACAAA,-0.159 ± 0.014
15,ACGCGGTG,0.208 ± 0.043
16,AAGGGCTG,-0.207 ± 0.014
17,CCGATATC,0.116 ± 0.028
18,AATTGCCA,0.176 ± 0.021
19,ATTGTCCG,-0.19 ± 0.031
20,CCATAGCG,0.032 ± 0.0043
21,CGCATCGA,0.0587 ± 0.0012
22,TATCACCA,0.269 ± 0.022

row,Sequence,PBM E-score of 8-mer
1,AGCCAGCT,-0.0543 ± 0.14
2,GGTACAAA,-0.0717 ± 0.0055
3,CTCGATGA,-0.115 ± 0.021
4,TAAAGCAA,-0.288 ± 0.019
5,CATTGCAA,-0.162 ± 0.048
6,CTCGCCCA,-0.0934 ± 0.15
7,AGGACGAA,-0.207 ± 0.043
8,AATGCCGT,-0.148 ± 0.026
9,CGCAGTAG,-0.134 ± 0.0021
10,CATGAGCC,-0.154 ± 0.071
11,AATCACTA,-0.0999 ± 0.0071
12,ATTGGGGA,-0.197 ± 0.0079
13,TGCAGCCA,0.00329 ± 0.0089
14,AGCCTTCA,-0.219 ± 0.055
15,CTAGTGAC,0.26 ± 0.027
16,GCTTAACC,0.0352 ± 0.043
17,AACCACTA,0.0474 ± 0.023
18,GAGTAAGA,-0.149 ± 0.095
19,GGACGGGA,-0.179 ± 0.0074
20,GTTCCTGA,0.0418 ± 0.022
21,AGTGACGC,0.3 ± 0.05

# Source: the supplement of paper PMC4166925
